Data as given in patent US7071165B2, “LHRH antagonist peptides” (Indiana University Research and Technology Corporation, priority 1995, dated 2006).
Counter-ions that a name gives are not always drawn. Not every detail of the peptide structures is certain; ends, links or a residue may be inferred. Starred links: 1 amine or outer side, 2 acyl side, 3 side chain; linkers in the order of their positions; H or OH if unused. Non-standard residues stand in square brackets, D forms with d. Residues, ends and D or L forms follow the SMILES beside them. *: point of attachment. X2 = O=C([C@@H](Cc1ccc[n+](Cc2ccccc2)c1)N[*:1])[*:2]; dPhe(4-Cl) = N[C@H](Cc1ccc(Cl)cc1)C(=O)O; X3 = C[S+](C)CC[C@@H](N[*:1])C(=O)[*:2]; X4 = C[S+](C)CC[C@H](N[*:1])C(=O)[*:2]; d2Nal = N[C@H](Cc1ccc2ccccc2c1)C(=O)O; Lys(iPr) = CC(C)NCCCC[C@H](N)C(=O)O; NMeY = CN[C@@H](Cc1ccc(O)cc1)C(=O)O; d3Pal = N[C@H](Cc1cccnc1)C(=O)O; NHCH2CH2SO3H = O=S(=O)(O)CCN*; X1 = O=C(c1ccc[n+]([O-])c1)*; Sar = CNCC(=O)O

Tests used:
ovulation in female rats = test: Anti-ovulatory activity (AOA) in vivo assay in rats; parameters: species or system rat; settings: for AO activity (AOA), in words: rat, in vivo
Procedure: As used herein, “LHRH antagonist peptide” is intended to include peptides and peptide analogs which inhibit LHRH activity (i.e., has “LHRH antagonist activity”) in vivo or in vitro. Candidate LHRH antagonist peptides can be assayed, for example, in the animal model described in Corbin and Beattie, Endocrine Res. Commun. 2:1 (1975) (and see infra). In this assay, the LHRH antagonistic activity of a candidate compound is assayed by measuring the antiovulatory activity (AOA) of the compound in rats.
Anti-ovulatory activity (AOA) was measured by an in vivo assay in rats, as described in Corbin and Beattie, Endocrine Res. Commun. 2:1 (1975). In brief, female rats are injected with a candidate LHRH antagonist on the day of proestrus; in general, the candidate LHRH antagonist was dissolved in 0.1% DMSO. The ability of the candidate peptide to inhibit ovulation is measured by determining the number of rats which ovulate. A candidate peptide is considered to have LHRH antagonist qualities if it inhibits ovulation in at least 50% of the treated rats at a dose of 5 μg per rat. Preferred LHRH antagonists inhibit ovulation in at least 50% of rats at a dose of 2 μg per rat, more preferably at a dose of […], and still more preferably at a dose of 0.5 μg per rat.

rat mast cells = test: Histamine release assay, rat mast cells
Procedure: The term “histamine-releasing activity”, as used herein, refers to the tendency of a compound to release histamine when administered to a subject. The histamine-releasing activity of a compound can be measured with an in vitro assay (described in more detail, infra). […] Histamine-releasing activity was assayed by the method described in U.S. Pat. No. 4,851,385 to Roeske. Briefly, a suspension of rat mast cells was added to increasing concentrations of an LHRH antagonist peptide and incubated for 15 minutes at 37° C. The buffer contained 25 mM PIPES, pH 7.4, NaCl (119 mM), KCl (5 mM), NaOH (40 mM) glucose (5.6 mM), CaCl2 (1 mM) and 0.1% bovine serum albumin.

[1] = footnote a: run with Nal arg reference 0.11
[2] = footnote b: run with Nal arg reference 0.14

CC(=O)N[C@H](Cc1ccc2ccccc2c1)C(=O)N[C@H](Cc1ccc(Cl)cc1)C(=O)N[C@H](Cc1cccnc1)C(=O)N[C@@H](CO)C(=O)N[C@@H](Cc1ccc(O)cc1)C(=O)N[C@H](CC(N)=O)C(=O)N[C@@H](CC(C)C)C(=O)N[C@@H](CCCCNC(C)C)C(=O)N1CCC[C@H]1C(=O)N[C@H](C)C(N)=O [Compound 3342, Ac-D-Nal^1,4-Cl-D-Phe^2, D-Pal^3, D-Asn^6-Lys(iPr)^8, D-Ala^10-LHRH.TFA] (Ac-[d2Nal][dPhe(4-Cl)][d3Pal]SY[dN]L[Lys(iPr)]P[dA]-NH2)
AO activity (AOA): rats which ovulate / rats treated (ovulation in female rats; dose 2 μg per rat): 2/10@2 μg
AO activity (AOA), in words (ovulation in female rats): moderate AOA

CC(=O)N[C@H](Cc1ccc2ccccc2c1)C(=O)N[C@H](Cc1ccc(Cl)cc1)C(=O)N[C@H](Cc1cccnc1)C(=O)N[C@@H](CO)C(=O)N[C@@H](Cc1ccc(O)cc1)C(=O)N[C@H](CCC(N)=O)C(=O)N[C@@H](CC(C)C)C(=O)N[C@@H](CCCCNC(C)C)C(=O)N1CCC[C@H]1C(=O)N[C@H](C)C(N)=O [Compound 3341, Ac-D-Nal^1,4-Cl-D-Phe^2, D-Pal^3, D-Gln^6-Lys(iPr)^8, D-Ala^10-LHRH.TFA] (Ac-[d2Nal][dPhe(4-Cl)][d3Pal]SY[dQ]L[Lys(iPr)]P[dA]-NH2)
AO activity (AOA): rats which ovulate / rats treated (ovulation in female rats; dose 1 μg per rat): 4/10@1 μg
AO activity (AOA): rats which ovulate / rats treated (ovulation in female rats; dose 2 μg per rat): 2/10@2 μg
AO activity (AOA), in words (ovulation in female rats): moderate AOA

CC(=O)N[C@H](Cc1ccc2ccccc2c1)C(=O)N[C@H](Cc1ccc(Cl)cc1)C(=O)N[C@H](Cc1cccnc1)C(=O)N[C@@H](CO)C(=O)N[C@@H](Cc1ccc(O)cc1)C(=O)N[C@@H](C(=O)N[C@@H](CC(C)C)C(=O)N[C@@H](CCCCNC(C)C)C(=O)N1CCC[C@H]1C(=O)N[C@H](C)C(N)=O)[C@H](C)O [Compound 3343, Ac-D-Nal^1,4-Cl-D-Phe^2, D-Pal^3, D-Thr^6-Lys(iPr)^8, D-Ala^10-LHRH.TFA] (Ac-[d2Nal][dPhe(4-Cl)][d3Pal]SY[dT]L[Lys(iPr)]P[dA]-NH2)
AO activity (AOA): rats which ovulate / rats treated (ovulation in female rats; dose 1 μg per rat): 5/10@1 μg
AO activity (AOA), in words (ovulation in female rats): moderate AOA

CC(=O)N[C@H](Cc1ccc2ccccc2c1)C(=O)N[C@H](Cc1ccc(Cl)cc1)C(=O)N[C@H](Cc1cccnc1)C(=O)N[C@@H](CO)C(=O)N(C)[C@@H](Cc1ccc(O)cc1)C(=O)N[C@H](CCCCNC(=O)c1ccc[n+]([O-])c1)C(=O)N[C@@H](CC(C)C)C(=O)N[C@@H](CCCCNC(C)C)C(=O)N1CCC[C@H]1C(=O)N[C@H](C)C(N)=O [Compound 3828, Ac-D-Nal^1,4-Cl-D-Phe^2, D-Pal^3, N-Me-Tyr^5, D-Lys(Onic)^8, Lys(iPr)^8, D-Ala^10-LHRH.TFA] (Ac-[d2Nal][dPhe(4-Cl)][d3Pal]S[NMeY][dK](X1)L[Lys(iPr)]P[dA]-NH2)
AO activity (AOA): rats which ovulate / rats treated (ovulation in female rats; dose 1 μg per rat): 4/8@1.0
Histamine release ED50 (rat mast cells; [1]): 42 µg/mL
Histamine release ED50 (rat mast cells; [2]): 39 µg/mL

CC(=O)N[C@H](Cc1ccc2ccccc2c1)C(=O)N[C@H](Cc1ccc(Cl)cc1)C(=O)N[C@H](Cc1c[nH]c2ccccc12)C(=O)N[C@@H](CO)C(=O)N[C@@H](Cc1ccc(O)cc1)C(=O)N[C@H](CC[S+](C)C)C(=O)N[C@@H](CC(C)C)C(=O)N[C@@H](CC[S+](C)C)C(=O)N1CCC[C@H]1C(=O)N[C@H](C)C(N)=O [Compound 3925, Ac-D-Nal^1,4-Cl-D-Phe^2, D-Trp^3, D-Met(S^+Me)^6, Met(S^+Me)^8, D-Ala^10-LHRH.2TFA] (Ac-[d2Nal][dPhe(4-Cl)][dW]SY[X3]L[X4]P[dA]-NH2)
AO activity (AOA): rats which ovulate / rats treated (ovulation in female rats; dose 1 μg per rat): 5/8@1.0
Histamine release ED50 (rat mast cells; footnote c: run with Nal arg reference 0.28): 13 µg/mL
Histamine release ED50 (rat mast cells; footnote d: run with Nal arg reference 0.11): 5 µg/mL

CC(=O)N[C@H](Cc1ccc2ccccc2c1)C(=O)N[C@H](Cc1ccc(Cl)cc1)C(=O)N[C@H](Cc1cccnc1)C(=O)N[C@@H](CO)C(=O)N[C@@H](Cc1ccc(O)cc1)C(=O)N[C@H](CCC(=O)NCCS(=O)(=O)O)C(=O)N[C@@H](CC(C)C)C(=O)N[C@@H](CCCCNC(C)C)C(=O)N1CCC[C@H]1C(=O)N[C@H](C)C(N)=O [Compound 3361, Ac-D-Nal^1,4-Cl-D-Phe^2, D-Pal^3, D-Glu(Taurine)^6-Lys(iPr)^8, D-Ala^10-LHRH.TFA] (Ac-[d2Nal][dPhe(4-Cl)][d3Pal]SY[dE](NHCH2CH2SO3H)L[Lys(iPr)]P[dA]-NH2)
AO activity (AOA): rats which ovulate / rats treated (ovulation in female rats; dose 5 μg per rat): 1/8@5 μg

CC(=O)N(C)CC(=O)N[C@H](Cc1ccc(Cl)cc1)C(=O)N[C@H](Cc1ccc2ccccc2c1)C(=O)N[C@@H](CO)C(=O)N[C@@H](Cc1ccc(O)cc1)C(=O)N[C@H](Cc1ccc[n+](Cc2ccccc2)c1)C(=O)N[C@@H](CC(C)C)C(=O)N[C@@H](CCCCNC(C)C)C(=O)N1CCC[C@H]1C(=O)N[C@H](C)C(N)=O [Compound 3763, Ac-Sar^1,4-Cl-D-Phe^2, D-Nal^3, D-Pal(Bzl)^6, Lys(iPr)^8, D-Ala^10-LHRH.2TFA] (Ac-[Sar][dPhe(4-Cl)][d2Nal]SY[X2]L[Lys(iPr)]P[dA]-NH2)
AO activity (AOA): rats which ovulate / rats treated (ovulation in female rats; dose 1 μg per rat): 4/8@1.0
Histamine release ED50 (rat mast cells; [1]): 102 µg/mL
Histamine release ED50 (rat mast cells; [2]): 76 µg/mL
